Measured values as given in PubChem BioAssay AID1347073 (National Center for Advancing Translational Sciences (NCATS), 2019).
About 200 (0.44%) of roughly 45,000 compounds were called active. Inconclusive results (about 7%) are left out. Calls follow the shape of the dose curve; as a rule, active = well fitted activation curve with a large enough effect; inconclusive = small, poorly fitted or top-dose-only effect; inactive = no such curve, though single readings can be large or run the other way. Some of the results follow.

Assay: qHTS of TDP-43 Inhibitors: NCGC Sytravon Library Screen; also: 0% is about no effect; nearly all actives have a fitted effect of over 55% in size
Settings: yeast TDP-43 toxicity rescue, BacTiter-Glo growth, 24 h; series mostly up to 46.1 µM; growth rescue (activation): at the top concentration
Outline: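 TDP-43-expressing yeast, pregrown in raffinose, seeded at OD600 0.02 in galactose medium with compound for 24 hr at 30 deg C. Growth read by BacTiter-Glo luminescence, so rescue of toxicity appears as activation.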

SMILES	growth rescue (activation)
O=C(COC(=O)c1ccccc1Br)Nc1ccccc1F	inactive: 10.9%
CSc1nsc(SCC(=O)Nc2ccccc2)n1	inactive: -4.34%
CC(C)(C)SCCNC(=O)Nc1ccccc1	inactive: 20.7%
CC(C)CN1C(=O)/C(=C(/C#N)C(=O)NC2CCCCC2)c2ccccc21	inactive: 7.5%
O=c1c2ccccc2ncn1/N=C/c1ccccc1	inactive: -15.9%
COc1ccc(/C=N/NC(=O)c2ccc(N(C)S(=O)(=O)c3ccccc3)cc2)cc1OC	inactive: -12.1%
NS(=O)(=O)c1ccc(N/N=C/C=C/c2ccccc2[N+](=O)[O-])cc1	inactive: 7.71%
NC1=NC(=O)CC(C(=O)NCCc2ccccc2)S1 (stereo not given)	inactive: -7.09%
CC1(C(=O)O)CCCN1C(=O)c1cccc(F)c1 (stereo not given)	inactive: 13.3%
NC(=O)c1nc(-c2ccc(F)c(F)c2)nc2c1[nH]c(=O)n2-c1cccc(Cl)c1	inactive: 6.16%
O=C(CN1CCCCC1)NNc1nc(-c2ccccc2)c2cc(Br)ccc2n1	inactive: -4.54%
N#C/C(=C/c1ccc(-c2ccccc2[N+](=O)[O-])o1)C(=O)NCCN1CCCCC1	inactive: -0.177%
CN(C)S(=O)(=O)c1cccc(C(=O)NC2CCCc3ccccc32)c1 (stereo not given)	inactive: 21.9%
COc1cc(/C=C2\SC(=S)N(CCC(=O)Nc3ccc(O)cc3)C2=O)cc(OC)c1OC	inactive: -9.1%
O=c1c([N+](=O)[O-])c(N2CCCC2)c2ccccc2n1-c1ccccc1	inactive: 3.59%
Cc1cc(Nc2ccccc2)nc(NCc2ccccc2)n1	inactive: 7.44%
Cc1[nH]nc2c1C(c1ccc(OC(=O)c3ccco3)cc1)C(C#N)=C(N)O2 (stereo not given)	inactive: 5.63%
COc1ccc(-n2nc(C(=O)NCC(=O)N3CCCC3)c3ccccc3c2=O)cc1Cl	inactive: -4.47%
CCN1C(=O)CCCc2ccccc21	inactive: 15.8%
CC(=O)c1cccc(NC(=O)N2CCC(NC(=O)c3ccco3)CC2)c1	inactive: -18.3%
CCOC(=O)c1c(C)[nH]c(C(=O)COC(=O)[C@H](C)N2C(=O)C3CCCCC3C2=O)c1C (stereo not given in full)	inactive: 3.73%
Cn1c(=NC(=O)c2ccc(S(=O)(=O)N3CCCc4ccccc43)cc2)sc2cc(F)ccc21	inactive: -5.39%
CCOC(=O)c1ccc[n+](CC(=O)Nc2cc(C(F)(F)F)ccc2Cl)c1	inactive: 7.92%
N/C(=N\OC(=O)COc1ccc(Br)cc1Cl)c1ccccn1	inactive: 1.86%
Cc1cc(C)n2nc(C(=O)N/N=C/c3ccc(O)cc3)nc2n1	inactive: 1.06%
COCCOC(=O)C1=C(C)N(c2ccccc2)C(=O)NC1c1cccc([N+](=O)[O-])c1 (stereo not given)	inactive: 17.4%
CC(C(=O)Nc1ccc(C#N)cc1)N(C)Cc1cccs1 (stereo not given)	inactive: 7.46%
CCOC(=O)Cc1csc(NC(=O)C(NC(=O)C2CCCCC2)C(C)C)n1 (stereo not given)	inactive: -1.27%
Cc1ccccc1C(=O)NC1CCN(CC(=O)NCc2ccccc2)CC1	inactive: -15.5%
O=C(NNC(=O)C1COc2ccccc2O1)c1cccc([N+](=O)[O-])c1 (stereo not given)	inactive: -3.4%
